# Reference: article PMC4336329 (PLoS ONE, 2015)
# In all, about 310,000 compounds went through this assay and about 14,000 (4.5%) showed an effect of 50% or more. The effect is printed as a negative number. Some of the results follow.
# Molecular target: human ether-à-go-go-related gene (hERG) potassium channel (human, UniProt Q12809)
# Experiment: primary screen, population patch clamp on CHO cells stably expressing hERG
# 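Note: peak tail current of the secondary pulse compared with the same well before compound.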
# human ether-à-go-go-related gene (hERG) potassium channel, sequence (Q12809 whole entry, looked up): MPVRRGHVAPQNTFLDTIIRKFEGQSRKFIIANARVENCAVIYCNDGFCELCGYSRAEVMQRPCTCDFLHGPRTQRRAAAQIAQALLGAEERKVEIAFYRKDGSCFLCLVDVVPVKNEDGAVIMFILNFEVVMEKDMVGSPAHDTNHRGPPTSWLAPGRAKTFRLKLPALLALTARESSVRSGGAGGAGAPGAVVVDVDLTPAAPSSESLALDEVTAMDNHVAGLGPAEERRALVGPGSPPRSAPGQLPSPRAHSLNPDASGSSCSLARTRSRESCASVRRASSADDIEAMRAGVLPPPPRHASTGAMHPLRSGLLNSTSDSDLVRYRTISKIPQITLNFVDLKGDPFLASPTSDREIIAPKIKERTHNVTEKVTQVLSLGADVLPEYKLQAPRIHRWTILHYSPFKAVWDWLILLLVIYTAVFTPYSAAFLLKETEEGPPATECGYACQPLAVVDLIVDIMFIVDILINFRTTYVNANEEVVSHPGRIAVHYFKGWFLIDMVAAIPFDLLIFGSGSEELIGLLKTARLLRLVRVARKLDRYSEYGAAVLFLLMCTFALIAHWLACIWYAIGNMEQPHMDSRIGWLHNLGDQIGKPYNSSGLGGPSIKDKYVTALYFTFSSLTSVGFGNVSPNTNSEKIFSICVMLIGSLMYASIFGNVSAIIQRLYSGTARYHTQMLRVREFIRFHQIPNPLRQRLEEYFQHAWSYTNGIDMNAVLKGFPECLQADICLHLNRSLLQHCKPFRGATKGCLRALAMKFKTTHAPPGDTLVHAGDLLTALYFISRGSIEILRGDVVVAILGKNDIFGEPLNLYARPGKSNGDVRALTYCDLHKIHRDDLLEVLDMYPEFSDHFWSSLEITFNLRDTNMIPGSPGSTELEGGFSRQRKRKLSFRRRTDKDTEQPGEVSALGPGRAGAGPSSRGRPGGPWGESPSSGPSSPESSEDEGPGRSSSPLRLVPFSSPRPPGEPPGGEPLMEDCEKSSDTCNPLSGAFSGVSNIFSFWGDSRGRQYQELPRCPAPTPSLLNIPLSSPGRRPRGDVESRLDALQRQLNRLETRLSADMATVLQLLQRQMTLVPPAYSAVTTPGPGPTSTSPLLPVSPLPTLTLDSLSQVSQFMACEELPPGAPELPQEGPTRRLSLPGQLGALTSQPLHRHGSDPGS
row,SMILES,"hERG current change (%, negative = inhibition) at 10uM"
1,CCCCn1c(=O)cc(N2CCOCC2)[nH]c1=O,1.77%
2,Cc1ccc(NC(=O)C2OCCc3ccccc32)cc1Cl (stereo not shown),6.53%
3,Cc1ccc(C(C)C)c(OCCCN2C(=O)NC(C)(C)C2=O)c1,-14.3%
4,CCn1c(SCC(=O)N2CCC(C)CC2)nnc1-c1ccco1,13%
5,CCOc1cc(C=O)ccc1OCCSc1ccc(Cl)cc1,4.69%
6,CC1(C)CC(=O)C=C(NNC(=O)c2cccnc2)C1,19.3%
7,CC(C)CNC(=O)c1c(N)n(Cc2ccco2)c2nc3ccccc3nc12,-14.1%
8,O=C1NC(=Nc2ccc(Cl)cc2)/C(=C/c2ccco2)S1,15.5%
9,CN(C)CCNC(=O)C1CCN(S(=O)(=O)c2ccc3ccccc3c2)CC1,-13.9%
10,COC(=O)c1sccc1NC(=O)c1cccs1,11.5%
11,Cc1cccc(OCC(=O)N/N=C/CC(C)c2ccccc2)c1C (stereo not shown),-1.02%
12,Cc1cccc(C(=O)Nc2c(C(=O)N3CCN(C)CC3)cnn2-c2ccccc2)c1,-15.9%
13,O=S(=O)(/N=C(/c1ccccc1)N1CCCCCC1)c1ccccc1,-17%
14,Br.c1ccc(-c2csc(NNC3=NCCCCC3)n2)cc1,-4.59%
15,CCCNc1nc(-c2cc(-c3ccc(Cl)cc3)on2)cc(C(C)C)n1,28.7%
16,CC(=O)O[C@H]1C(=O)[C@@]2(C)C([C@H](OC(=O)c3ccccc3)[C@]3(O)C[C@H](OC(=O)[C@H](O)[C@@H](NC(=O)Cc4ccccc4)c4ccccc4)C(C)=C1C3(C)C)[C@]1(OC(C)=O)CO[C@@H]1C[C@@H]2O (stereo partly shown),16.6%
17,CCc1cc[n+](C2=C([O-])c3ccccc3C(=O)/C2=N\S(=O)(=O)c2cccs2)cc1,-11.6%
18,CCSc1nc(=S)n(Cc2ccccc2)c(C)c1C(C)=O,4.83%
19,O=C(Nc1ccccc1C(F)(F)F)c1cc(S(=O)(=O)N2CCOCC2)ccc1F,-18.6%
20,N#C/C(=C\c1cccc([N+](=O)[O-])c1)C(=O)NCc1cccnc1,-50.8%
21,CCCC(=O)OC(C(=O)Nc1cc(C(F)(F)F)ccc1Cl)c1ccccc1 (stereo not shown),-9.58%
22,CCN1CCN(C(=O)CSc2cc(=O)n(CC)c3ccccc23)CC1,-6.49%

row,SMILES,"hERG current change (%, negative = inhibition) at 10uM"
1,COc1ccc(CCN2C(=O)CSC2=S)cc1OC,12.8%
2,COc1ccc(-c2cc(C(=O)NCCCN3CCCC3=O)c3ccccc3n2)cc1OC,-64.7%
3,CSc1ccccc1NC(=O)c1ccc(N2CC3CC(C2)c2cccc(=O)n2C3)c(NC(=O)c2ccncc2)c1 (stereo not shown),-30.1%
4,Cc1cc2nnc(SCC(=O)Nc3cccc(S(=O)(=O)N4CCOCC4)c3)n2c2ccccc12,-14.4%
5,C/C(=N\NC(=O)CNc1ccccc1)c1ccccc1,-12.8%
6,O=C1C=C(c2cccs2)CC(c2cccs2)C1n1cnc([N+](=O)[O-])c1 (stereo not shown),-22.8%
7,CC(C)c1ccc(NC(=O)c2cccnc2)cc1,2.13%
8,O=C(Nc1cccc(F)c1)c1ccc2ncsc2c1,9.49%
9,Cc1cccn2cc(-c3ccc(F)cc3)nc12,-14.1%
10,CCOc1ccccc1C(c1c(O)nc(SC)[nH]c1=O)c1c(O)nc(SC)[nH]c1=O,5.67%
11,CC(=O)N/C(=C\c1ccccc1)C(=O)OC(C)C(=O)NCc1ccccc1 (stereo not shown),-8.68%
12,Cc1ccc(OCCOc2cccc(Br)c2)c([N+](=O)[O-])n1,0.558%
13,Oc1ccc(-c2cnc3ccccc3n2)cc1,2.13%
14,COc1ccc(OC)c(NC(=O)c2ccc(S(=O)(=O)N3CCOCC3)cc2)c1,17.2%
15,COc1ccc2c(CC(=O)N[C@@H](Cc3ccccc3)C(=O)O)cc(=O)oc2c1C,1.22%
16,Nc1ccccc1-c1nnn(CC(=O)Nc2ccc3c(c2)OCCO3)n1,16.5%
17,Cc1ccccc1NC(=O)Cc1nc(COC(=O)c2cccnc2Cl)cs1,-5.06%
18,Oc1cccc(/C=N/NC(=S)Nc2cccnc2)c1O,13%
19,Nc1nonc1-c1noc(-c2ccc(Br)o2)n1,-9.48%
20,Cc1noc(C)c1S(=O)(=O)N1CCCC(C(=O)N2CCc3ccccc3C2)C1 (stereo not shown),-36.4%
21,COC(=O)c1cccc(NC(=O)CC2C(=O)NCCN2C(=O)Nc2cc(C)cc(C)c2)c1 (stereo not shown),11%
22,O=C(C1=C(O)C(=O)N(CCN2CCOCC2)C1c1ccc(Br)cc1)c1cc2ccccc2o1 (stereo not shown),12.4%

row,SMILES,"hERG current change (%, negative = inhibition) at 10uM"
1,O=C(Cn1nnc(-c2ccc(F)cc2)n1)N1CCCCC1,12.8%
2,COc1ccc(Cn2nnnc2CN(Cc2cc3cccc(C)c3[nH]c2=O)C2CCCC2)cc1,-31%
3,COc1cccc(C2SCC(=O)N2c2ccc(Br)cc2)c1OC (stereo not shown),-2.69%
4,CCCCCn1c(N2CCN(Cc3ccccc3)CC2)nc2c1c(=O)[nH]c(=O)n2C,-74.8%
5,COc1ccc(CN2CCN(Cc3ccon3)CC2CCO)c(C)c1C (stereo not shown),-37.3%
6,COc1ccc(C(=O)c2c(C)c(CCC#N)n3ccccc23)c(OC)c1,-5.38%
7,CC(=NCC1CCCO1)c1c(O)n(-c2ccc(C)cc2)c(=O)[nH]c1=O (stereo not shown),-8.18%
8,O=C(CCS(=O)(=O)c1ccc(Br)s1)NC1CCCC1,6.05%
9,Cc1ccc(-n2ncc3c2CC(C)(C)CC3NC(=O)c2ccncc2)cc1 (stereo not shown),-72.2%
10,O=C(NCCc1ccccc1)C(=O)NCC1CCCN1S(=O)(=O)c1cccs1 (stereo not shown),-22.7%
11,NC1=CC(=O)c2cccc3cccc1c23,10.2%
12,CC1CCCN(CCC(=O)Nc2ccc(F)c(F)c2)C1 (stereo not shown),-30.1%
13,Cc1cccc(OCCCCn2c(CO)nc3ccccc32)c1,-5.5%
14,CCc1nc(Nc2ccccc2)c2oc3ccccc3c2n1.Cl,-5.28%
15,Cc1cc(C)n(Cc2ccc(C(=O)NCc3ccco3)o2)n1,1.88%
16,CC(=O)c1cccc(NC(=O)NCCc2c[nH]c3ccccc23)c1,-4.67%
17,CCOC(=O)N1CCN(C(=O)C(NC(=O)c2ccco2)C(C)C)CC1 (stereo not shown),13.2%
18,Cc1ccc(S(=O)(=O)N2CCCC(C(=O)NCc3cccnc3)C2)cc1Cl (stereo not shown),-20.9%
19,O=C(COC(=O)c1cccc2ccccc12)Nc1ncc(C(F)(F)F)cc1Cl,13%
20,COc1ccccc1C(=O)Nc1c2c(nn1-c1ccc(Cl)cc1)CS(=O)(=O)C2,9.63%
21,CCOC(=O)Cc1csc(/N=C/c2c(O)n(-c3ccc(C)c(C)c3)c(=O)c3ccccc23)n1,-11%
22,CN(CC(=O)Nc1cccc(F)c1)C(=O)c1cc(S(=O)(=O)N(C)C)ccc1N1CCCC1,-5.03%

row,SMILES,"hERG current change (%, negative = inhibition) at 10uM"
1,Cc1ccc(S(=O)(=O)N2CCN(C(=O)Cc3ccc(S(=O)(=O)N4CCOCC4)s3)CC2)cc1,8.35%
2,CCN1CCN(CC(=O)Nc2ccc3c(c2)OCO3)C(=O)C1=O,-3.39%
3,COc1ccc2cc(S(=O)(=O)NCCCN3CCOCC3)ccc2c1,-18.8%
4,CCOC(=O)C1=NN(C(=O)c2cccc(Br)c2)C(O)(C(C)(C)C)C1 (stereo not shown),-57.6%
5,CCOc1ccc(NC(=O)C(=O)NCC2CCCN2CC)cc1 (stereo not shown),-16.4%
6,CCCC(=Nc1ccc(N)cc1)C1=C(O)C(C(=O)OC)C(C)(C)CC1=O (stereo not shown),3.53%
7,CNC(=S)N(CCc1c(C)[nH]c2ccc(F)cc12)Cc1ccco1,0.221%
8,Cc1cccc(NC(=O)NCc2ccc3[nH]c(C)cc3c2)c1,19.7%
9,Cc1nn(C)cc1/C=N/NC(=O)Cn1nnc(N)n1,15.9%
10,CCOC(=O)CSc1nnc(-c2ccccc2)o1,7.66%
11,Cn1c(SCC(=O)Nc2cccnc2)nnc1-c1ccccc1F,20.9%
12,COc1ccc(NC(=O)NCCN2CCN(c3cc(OC)ccc3OC)CC2)cc1,-2.75%
13,Cc1ccc2c(c1)sc(C)[n+]2CCCS(=O)(=O)[O-],29.7%
14,COCc1cc(C)nc(SCC(=O)Nc2ccc3c(c2)n(C)c(=O)n3C)c1C#N,22.7%
15,CC(C)(C)c1csc(NC2=NS(=O)(=O)c3ccccc32)n1,8.84%
16,Cc1ccc(NC(=S)NNC(=O)CSc2nc3ccccc3c(=O)n2-c2ccc(C)cc2)cc1,-0.606%
17,O=C(CN1CCOCC1)Nc1ccc(Br)cn1,-8.93%
18,Cc1cccc(NC(=O)CN2CCN(C(=O)c3cnn(Cc4ccccc4)c3)CC2)c1C,-87.2%
19,Cc1ccccc1Nc1nnc(SCC(=O)NCc2cccs2)s1,-5.79%
20,S=c1[nH]c2ccccc2[nH]1,4.88%
21,O=C(Nc1ccc2oc(-c3ccncc3)nc2c1)c1c(F)c(F)c(F)c(F)c1F,12.4%
22,COc1ccccc1CN1C[C@@H]2C[C@@H](C3=Cc4cc(Cl)ccc4OC3)N3CCC[C@@]23C1=O,-41.4%
